We go through three molecules from PMC3424240.

Sequences of proteins named here, by UniProt entry; tags and fusion partners are left off.
UniProt Q9UPS6: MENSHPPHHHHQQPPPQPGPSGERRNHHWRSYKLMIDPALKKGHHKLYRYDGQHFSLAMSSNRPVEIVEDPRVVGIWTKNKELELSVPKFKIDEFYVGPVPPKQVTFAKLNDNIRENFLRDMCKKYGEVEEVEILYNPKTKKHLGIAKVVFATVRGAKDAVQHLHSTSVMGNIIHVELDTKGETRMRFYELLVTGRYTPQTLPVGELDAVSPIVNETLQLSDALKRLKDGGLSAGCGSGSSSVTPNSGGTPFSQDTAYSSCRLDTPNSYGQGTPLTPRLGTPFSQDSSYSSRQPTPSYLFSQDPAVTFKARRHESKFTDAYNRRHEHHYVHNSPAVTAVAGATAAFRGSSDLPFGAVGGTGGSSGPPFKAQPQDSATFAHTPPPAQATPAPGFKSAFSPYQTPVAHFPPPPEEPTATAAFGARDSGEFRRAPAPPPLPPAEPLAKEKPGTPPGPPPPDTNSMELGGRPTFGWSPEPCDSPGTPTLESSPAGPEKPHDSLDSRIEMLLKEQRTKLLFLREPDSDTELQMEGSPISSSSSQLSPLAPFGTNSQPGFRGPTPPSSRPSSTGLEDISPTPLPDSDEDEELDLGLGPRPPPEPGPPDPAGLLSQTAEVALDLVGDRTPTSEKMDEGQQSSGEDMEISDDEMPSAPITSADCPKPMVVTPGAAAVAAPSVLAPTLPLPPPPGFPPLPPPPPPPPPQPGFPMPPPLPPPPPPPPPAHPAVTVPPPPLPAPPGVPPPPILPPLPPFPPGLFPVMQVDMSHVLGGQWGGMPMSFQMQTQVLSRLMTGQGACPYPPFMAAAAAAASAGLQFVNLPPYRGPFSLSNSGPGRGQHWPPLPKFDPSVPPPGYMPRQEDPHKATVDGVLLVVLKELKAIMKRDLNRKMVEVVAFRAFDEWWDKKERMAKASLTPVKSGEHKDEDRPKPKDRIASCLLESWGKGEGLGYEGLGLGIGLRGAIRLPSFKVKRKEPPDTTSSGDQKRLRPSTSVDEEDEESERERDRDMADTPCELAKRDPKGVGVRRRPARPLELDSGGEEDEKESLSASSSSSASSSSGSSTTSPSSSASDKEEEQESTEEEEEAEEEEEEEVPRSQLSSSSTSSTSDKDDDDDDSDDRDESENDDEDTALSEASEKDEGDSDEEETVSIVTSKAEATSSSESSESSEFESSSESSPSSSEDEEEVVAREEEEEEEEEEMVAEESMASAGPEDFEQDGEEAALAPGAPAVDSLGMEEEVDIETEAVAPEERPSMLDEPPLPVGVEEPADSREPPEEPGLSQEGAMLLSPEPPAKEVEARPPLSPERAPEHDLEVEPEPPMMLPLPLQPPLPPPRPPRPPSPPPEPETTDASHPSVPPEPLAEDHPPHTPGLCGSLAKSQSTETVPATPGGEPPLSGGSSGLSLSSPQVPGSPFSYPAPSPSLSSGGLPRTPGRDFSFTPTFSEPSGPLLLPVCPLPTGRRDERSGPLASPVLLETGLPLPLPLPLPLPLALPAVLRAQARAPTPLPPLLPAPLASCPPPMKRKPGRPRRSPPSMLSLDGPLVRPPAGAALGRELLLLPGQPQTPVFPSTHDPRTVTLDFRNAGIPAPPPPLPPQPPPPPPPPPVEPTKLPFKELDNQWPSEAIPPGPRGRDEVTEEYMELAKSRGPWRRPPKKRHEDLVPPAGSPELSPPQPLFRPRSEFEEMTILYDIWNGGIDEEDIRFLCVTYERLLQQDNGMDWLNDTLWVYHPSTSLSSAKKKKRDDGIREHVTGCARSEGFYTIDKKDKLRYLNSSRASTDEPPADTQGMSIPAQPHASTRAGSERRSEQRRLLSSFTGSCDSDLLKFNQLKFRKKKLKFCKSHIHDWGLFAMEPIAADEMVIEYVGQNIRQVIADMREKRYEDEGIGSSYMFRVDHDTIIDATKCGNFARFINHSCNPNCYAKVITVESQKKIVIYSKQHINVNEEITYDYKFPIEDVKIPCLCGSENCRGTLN
UniProt Q8CFT2: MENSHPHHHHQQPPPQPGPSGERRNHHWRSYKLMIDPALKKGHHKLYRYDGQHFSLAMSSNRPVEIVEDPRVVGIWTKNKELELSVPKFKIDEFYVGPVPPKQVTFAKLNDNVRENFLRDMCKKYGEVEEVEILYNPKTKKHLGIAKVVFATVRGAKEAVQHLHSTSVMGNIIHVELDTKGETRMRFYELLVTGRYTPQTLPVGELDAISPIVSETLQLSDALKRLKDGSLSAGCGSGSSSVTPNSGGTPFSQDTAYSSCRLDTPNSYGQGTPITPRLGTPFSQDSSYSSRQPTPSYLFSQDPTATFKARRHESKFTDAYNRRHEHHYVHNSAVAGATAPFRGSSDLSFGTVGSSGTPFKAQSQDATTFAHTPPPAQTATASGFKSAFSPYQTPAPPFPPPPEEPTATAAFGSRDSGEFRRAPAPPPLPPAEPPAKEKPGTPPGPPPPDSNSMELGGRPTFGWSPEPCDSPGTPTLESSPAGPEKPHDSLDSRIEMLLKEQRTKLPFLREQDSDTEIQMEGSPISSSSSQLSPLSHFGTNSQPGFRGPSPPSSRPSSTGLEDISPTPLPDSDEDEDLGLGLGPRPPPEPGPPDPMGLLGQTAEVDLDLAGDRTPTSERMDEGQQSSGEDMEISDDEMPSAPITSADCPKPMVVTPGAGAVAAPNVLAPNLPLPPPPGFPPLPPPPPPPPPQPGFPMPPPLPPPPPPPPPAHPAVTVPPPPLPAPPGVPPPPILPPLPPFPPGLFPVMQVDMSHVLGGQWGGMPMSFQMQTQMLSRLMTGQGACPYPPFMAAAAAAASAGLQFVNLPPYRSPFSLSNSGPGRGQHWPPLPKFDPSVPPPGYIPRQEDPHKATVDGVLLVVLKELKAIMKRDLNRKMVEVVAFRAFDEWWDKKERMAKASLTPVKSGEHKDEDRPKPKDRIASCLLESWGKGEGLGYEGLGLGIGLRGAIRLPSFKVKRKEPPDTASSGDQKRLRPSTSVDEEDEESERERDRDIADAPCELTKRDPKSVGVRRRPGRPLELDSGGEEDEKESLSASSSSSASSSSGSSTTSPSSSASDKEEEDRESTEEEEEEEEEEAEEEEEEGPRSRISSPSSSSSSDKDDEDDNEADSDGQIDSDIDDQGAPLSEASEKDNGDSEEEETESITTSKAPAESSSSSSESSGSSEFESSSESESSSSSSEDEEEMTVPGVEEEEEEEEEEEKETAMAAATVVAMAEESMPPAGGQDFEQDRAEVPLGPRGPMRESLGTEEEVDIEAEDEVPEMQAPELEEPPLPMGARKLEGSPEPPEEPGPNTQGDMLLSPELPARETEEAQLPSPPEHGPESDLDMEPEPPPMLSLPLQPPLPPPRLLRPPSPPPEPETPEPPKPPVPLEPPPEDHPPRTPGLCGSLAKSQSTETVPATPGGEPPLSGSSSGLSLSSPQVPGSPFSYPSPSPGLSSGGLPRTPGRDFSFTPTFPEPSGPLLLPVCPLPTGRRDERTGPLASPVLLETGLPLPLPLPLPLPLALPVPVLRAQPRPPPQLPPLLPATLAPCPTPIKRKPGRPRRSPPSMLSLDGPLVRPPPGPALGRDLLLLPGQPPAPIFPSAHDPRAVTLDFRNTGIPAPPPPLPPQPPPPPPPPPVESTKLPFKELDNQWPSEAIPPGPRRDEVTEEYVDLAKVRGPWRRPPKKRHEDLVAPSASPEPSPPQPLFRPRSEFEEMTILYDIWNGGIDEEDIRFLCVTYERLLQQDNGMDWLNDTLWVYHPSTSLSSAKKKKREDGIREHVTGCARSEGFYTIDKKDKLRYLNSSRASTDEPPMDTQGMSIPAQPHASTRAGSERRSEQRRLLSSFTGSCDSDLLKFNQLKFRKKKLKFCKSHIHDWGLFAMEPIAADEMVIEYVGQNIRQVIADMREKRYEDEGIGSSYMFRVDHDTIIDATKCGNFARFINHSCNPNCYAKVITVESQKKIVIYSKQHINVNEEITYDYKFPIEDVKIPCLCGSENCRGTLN

No constants are given. Whether binding was seen depends on the method and setting. In cells and extracts the contact can be indirect. Some results given as binding are weak or reduced against the parent protein; the word gives no strength. For part of these data: Where a sequence is shown, tags or fusion partners need not be part of it.

Assay [1] addresses endogenous Setd1b (human (endogenous in HEK293)) (UniProt Q9UPS6). In words: co-IP; immunoprecipitation with anti-Setd1b antiserum from nuclear extracts of HEK293 cells transiently transfected with Myc-tagged constructs, Western blotting. Background: Immunoblotting shows a protein as a band on a membrane.
The target of assay [2] is Setd1b of murine 6133 megakaryoblastic leukemic cells (mouse (endogenous in 6133)) (UniProt Q8CFT2). The assay can be described thus: co-IP; immunoprecipitation with antisera against Setd1b or Rbm15 from whole cell extracts of murine 6133 megakaryoblastic leukemic cells, Western blotting.

B1: Myc-Mkl1 (protein, UniProt Q969V6 1-931)
chain: MPPLKSPAAFHEQRRSLERARTEDYLKRKIRSRPERSELVRMHILEETSAEPSLQAKQLKLKRARLADDLNEKIAQRPGPMELVEKNILPVESSLKEAIIVGQVNYPKVADSSSFDEDSSDALSPEQPASHESQGSVPSPLEARVSEPLLSATSASPTQVVSQLPMGRDSREMLFLAEQPPLPPPPLLPPSLTNGTTIPTAKSTPTLIKQSQPKSASEKSQRSKKAKELKPKVKKLKYHQYIPPDQKQDRGAPPMDSSYAKILQQQQLFLQLQILNQQQQQHHNYQAILPAPPKSAGEALGSSGTPPVRSLSTTNSSSSSGAPGPCGLARQNSTSLTGKPGALPANLDDMKVAELKQELKLRSLPVSGTKTELIERLRAYQDQISPVPGAPKAPAATSILHKAGEVVVAFPAARLSTGPALVAAGLAPAEVVVATVASSGVVKFGSTGSTPPVSPTPSERSLLSTGDENSTPGDTFGEMVTSPLTQLTLQASPLQILVKEEGPRAGSCCLSPGGRAELEGRDKDQMLQEKDKQIEALTRMLRQKQQLVERLKLQLEQEKRAQQPAPAPAPLGTPVKQENSFSSCQLSQQPLGPAHPFNPSLAAPATNHIDPCAVAPGPPSVVVKQEALQPEPEPVPAPQLLLGPQGPSLIKGVAPPTLITDSTGTHLVLTVTNKNADSPGLSSGSPQQPSSQPGSPAPAPSAQMDLEHPLQPLFGTPTSLLKKEPPGYEEAMSQQPKQQENGSSSQQMDDLFDILIQSGEISADFKEPPSLPGKEKPSPKTVCGSPLAAQPSPSAELPQAAPPPPGSPSLPGRLEDFLESSTGLPLLTSGHDGPEPLSLIDDLHSQMLSSTAILDHPPSPMDTSELHFVPEPSSTMGLDLADGHLDSMDWLELSSGGPVLSLAPLSTTAPSLFSTDFLDGHDLQLHWDSCL
On to B1, for which, in assay [1], the binding result is on record as “no binding”.

B2: Rbm15 of murine 6133 megakaryoblastic leukemic cells (protein, UniProt Q0VBL3 1-962)
chain: MRSAGREPLPRRSPRWRRASPLCETSAGWRVSQLRRDDLRRPSTMKGKERSPVKPKRSRGGEDSSSRGERSKKLGGSGGSNGSSSGKTDSGGSRRSLHLDKSSSRGGSREYETGGGSSSSRLHSYSSPSTKNSSGGGESRSSSRGGGGESRSSGAASSAPGGGDGVEYKTLKISELGSQLSDEAVEDGLFHEFKRFGDVSVKISHLSGSGSGDERVAFVNFRRPEDARAAKHARGRLVLYDRPLKIEAVYVSRRRSRSPLDKDAYAPSSSVVGTSVGSHRHAPGGGGGQRSLSPGGAALGYRDYRLQQLALGRLPPPPPPPLPRELERERDYPFYDRVRPAYSLEPRVGAGAGAAPFREVDEISPEDDQRANRTLFLGNLDITVTENDLRRAFDRFGVITEVDIKRPSRGQTSTYGFLKFENLDMSHRAKLAMSGKIIIRNPIKIGYGKATPTTRLWVGGLGPWVPLAALAREFDRFGTIRTIDYRKGDSWAYIQYESLDAAHAAWTHMRGFPLGGPDRRLRVDFADTEHRYQQQYLQPLPLTHYELVTDTFGHRAPDPLRSARDRTPPLLYRDRDRDLYTDSDWVPPPPPVRERSARAATSAVTAYEPLDSLDRRRDGWSLDRDRGDRDLPSSRDQPRKRRLPEESGGRHLDRSPESERPRKQRHCTPSPDRSPELSSNRDRYNSDNDRSSRLLLLERSSPVRDRRGSLEKSQSDKRDRKNSASAERDRKHRTAAPTEGKNPLKKEDRSDGNAPSASTSSSKQKPPSQKQDGGTAPVAASSPKLCLAWQGMLLLKNSNFPSNMHLLQGDLQVASSLLVEGSTGGKVAQLKITQRLRLDQPKLDEVTRRIKVAGPNGYAILLAVPGSSDSRSSSSSATSDTAASTQRPLRNLVSYLKQKQAAGVISLPVGGNKDKENTGVLHAFPPCEFSQQFLDSPAKALAKSEEDYLVMIIVRAKLVNSG
As to B2, the binding entry in assay [2] was “binds”.

B3: Myc-Rbm15 (protein, UniProt Q96T37 1-977)
chain: MRTAGRDPVPRRSPRWRRAVPLCETSAGRRVTQLRGDDLRRPATMKGKERSPVKAKRSRGGEDSTSRGERSKKLGGSGGSNGSSSGKTDSGGGSRRSLHLDKSSSRGGSREYDTGGGSSSSRLHSYSSPSTKNSSGGGESRSSSRGGGGESRSSGAASSAPGGGDGAEYKTLKISELGSQLSDEAVEDGLFHEFKRFGDVSVKISHLSGSGSGDERVAFVNFRRPEDARAAKHARGRLVLYDRPLKIEAVYVSRRRSRSPLDKDTYPPSASVVGASVGGHRHPPGGGGGQRSLSPGGAALGYRDYRLQQLALGRLPPPPPPPLPRDLERERDYPFYERVRPAYSLEPRVGAGAGAAPFREVDEISPEDDQRANRTLFLGNLDITVTESDLRRAFDRFGVITEVDIKRPSRGQTSTYGFLKFENLDMSHRAKLAMSGKIIIRNPIKIGYGKATPTTRLWVGGLGPWVPLAALAREFDRFGTIRTIDYRKGDSWAYIQYESLDAAHAAWTHMRGFPLGGPDRRLRVDFADTEHRYQQQYLQPLPLTHYELVTDAFGHRAPDPLRGARDRTPPLLYRDRDRDLYPDSDWVPPPPPVRERSTRTAATSVPAYEPLDSLDRRRDGWSLDRDRGDRDLPSSRDQPRKRRLPEESGGRHLDRSPESDRPRKRHCAPSPDRSPELSSSRDRYNSDNDRSSRLLLERPSPIRDRRGSLEKSQGDKRDRKNSASAERDRKHRTTAPTEGKSPLKKEDRSDGSAPSTSTASSKLKSPSQKQDGGTAPVASASPKLCLAWQGMLLLKNSNFPSNMHLLQGDLQVASSLLVEGSTGGKVAQLKITQRLRLDQPKLDEVTRRIKVAGPNGYAILLAVPGSSDSRSSSSSAASDTATSTQRPLRNLVSYLKQKQAAGVISLPVGGNKDKENTGVLHAFPPCEFSQQFLDSPAKALAKSEEDYLVMIIVRGFGFQIGVRYENKKRENLALTLL
As to B3, in assay [1], the binding entry is reported as “binds”.
